Laboratory results as given in patent publication EP4714970A1 (Akeso Biopharma Co., Ltd., dated 2026).
Where two headings read alike, the source gives them in different places.

T1: human LAG3 on cell surface (293T-LAG3 cells; Jurkat-NFAT-PD1-LAG3 cells) (human, UniProt P18627 23-525)
T1 construct: whole, on cells; also called huLAG3FL
T1 sequence (looked up): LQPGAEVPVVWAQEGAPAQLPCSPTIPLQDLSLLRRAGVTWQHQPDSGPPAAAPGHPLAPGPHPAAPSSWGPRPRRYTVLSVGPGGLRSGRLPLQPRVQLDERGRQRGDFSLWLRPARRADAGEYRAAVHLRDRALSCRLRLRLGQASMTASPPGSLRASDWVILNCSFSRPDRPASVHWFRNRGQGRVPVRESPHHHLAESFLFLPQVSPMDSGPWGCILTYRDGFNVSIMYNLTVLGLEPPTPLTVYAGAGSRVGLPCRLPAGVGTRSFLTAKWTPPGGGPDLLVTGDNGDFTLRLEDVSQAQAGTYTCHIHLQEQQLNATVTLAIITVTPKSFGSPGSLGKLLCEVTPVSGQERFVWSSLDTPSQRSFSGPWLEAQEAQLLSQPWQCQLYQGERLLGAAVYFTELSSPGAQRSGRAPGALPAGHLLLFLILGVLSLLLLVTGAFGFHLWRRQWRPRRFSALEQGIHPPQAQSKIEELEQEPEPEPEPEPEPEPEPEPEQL

T2: human LAG3-mG1Fc (human; mouse, UniProt P18627 23-450, limits assumed)
T2 construct: Made by Akeso; also called huLAG3-mG1Fc; HuLAG3-mG1Fc; not shown: mouse IgG1 Fc (mG1Fc); limits not readable
T2 sequence (looked up): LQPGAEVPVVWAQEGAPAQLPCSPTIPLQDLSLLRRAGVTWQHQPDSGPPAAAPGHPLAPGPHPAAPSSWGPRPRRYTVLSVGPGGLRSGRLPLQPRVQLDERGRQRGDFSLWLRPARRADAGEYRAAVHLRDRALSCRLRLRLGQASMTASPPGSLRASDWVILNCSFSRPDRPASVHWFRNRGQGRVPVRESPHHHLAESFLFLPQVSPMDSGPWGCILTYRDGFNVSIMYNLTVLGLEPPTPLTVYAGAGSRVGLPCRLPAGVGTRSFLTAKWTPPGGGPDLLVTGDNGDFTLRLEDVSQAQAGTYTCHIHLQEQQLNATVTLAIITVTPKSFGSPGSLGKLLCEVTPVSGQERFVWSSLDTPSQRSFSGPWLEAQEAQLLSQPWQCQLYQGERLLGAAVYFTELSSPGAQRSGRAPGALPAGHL

T3: CD73 on U87-MG cell membrane surface (UniProt P21589 27-549, limits assumed)
T3 construct: whole, on cells; also called CD73 endogenously expressed by U87-MG
T3 sequence (looked up): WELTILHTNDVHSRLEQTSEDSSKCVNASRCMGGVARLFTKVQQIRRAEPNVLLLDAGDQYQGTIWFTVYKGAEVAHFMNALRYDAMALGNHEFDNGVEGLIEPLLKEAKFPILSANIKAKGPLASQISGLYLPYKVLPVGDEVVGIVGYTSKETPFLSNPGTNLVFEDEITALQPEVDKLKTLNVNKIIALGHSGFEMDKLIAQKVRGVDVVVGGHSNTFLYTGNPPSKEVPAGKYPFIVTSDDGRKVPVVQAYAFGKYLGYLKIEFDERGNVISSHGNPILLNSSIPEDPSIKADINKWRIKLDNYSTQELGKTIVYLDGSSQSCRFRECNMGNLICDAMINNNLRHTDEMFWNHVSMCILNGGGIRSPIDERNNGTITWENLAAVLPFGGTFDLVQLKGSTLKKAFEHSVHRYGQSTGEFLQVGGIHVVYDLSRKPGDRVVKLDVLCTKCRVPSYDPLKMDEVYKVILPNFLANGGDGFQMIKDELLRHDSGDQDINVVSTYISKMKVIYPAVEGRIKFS

T4: hNT5E(1-552)-His (human, UniProt P21589 27-552)
T4 construct: also called NT5E-His; not shown: His tag
T4 sequence (looked up): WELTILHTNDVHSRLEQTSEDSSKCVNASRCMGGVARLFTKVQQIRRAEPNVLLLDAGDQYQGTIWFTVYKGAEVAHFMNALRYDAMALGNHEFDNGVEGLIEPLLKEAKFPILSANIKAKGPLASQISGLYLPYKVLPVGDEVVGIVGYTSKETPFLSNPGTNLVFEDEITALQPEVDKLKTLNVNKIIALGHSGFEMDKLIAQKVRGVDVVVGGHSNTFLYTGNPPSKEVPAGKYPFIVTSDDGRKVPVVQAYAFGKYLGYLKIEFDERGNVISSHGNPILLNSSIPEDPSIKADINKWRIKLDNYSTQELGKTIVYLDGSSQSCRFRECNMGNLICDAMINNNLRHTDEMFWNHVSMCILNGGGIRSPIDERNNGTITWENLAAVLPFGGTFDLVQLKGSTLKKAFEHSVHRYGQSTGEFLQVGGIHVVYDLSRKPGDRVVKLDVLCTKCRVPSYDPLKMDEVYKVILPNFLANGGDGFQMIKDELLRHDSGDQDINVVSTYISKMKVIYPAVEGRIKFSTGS

B1: NTLAV8(hG1TM) (bispecific antibody, human IgG1, kappa)
heavy: QVQLVQSGAEVVKPGASVKVSCKASGYSFTGYTMNWVRQAPGQNLEWIGLINPYNAGTSYNQKFQGKVTLTVDKSTSTAYMELSSLRSEDTAVYYCARSEYRYGGDYFDYWGQGTTLTVSSASTKGPSVFPLAPSSKSTSGGTAALGCLVKDYFPEPVTVSWNSGALTSGVHTFPAVLQSSGLYSLSSVVTVPSSSLGTQTYICNVNHKPSNTKVDKKV[letters of human IgG1 Fc with L234A L235A G237A (EU numbers) omitted]GGGGSGGGGSGGGGSQVQLQQWGAGLLKPSETLSLTCAVYGGSISDYYWNWIRQPPGKCLEWIGEINYRGTTNSNPSLKSRVTLSLDTSKNQFSLKLRSVTAADTAVYYCAFGYSDYEYDWFDPWGQGTLVTVSSGGGGSGGGGSGGGGSGGGGSEIVLTQSPATLSLSPGERATLSCRASQTISSYLAWYQQKPGQAPRLLIYDASNRATGIPARFSGSGSGTDFTLTISSLEPEDFAVYYCQQRSNWPITFGCGTNLEIK
light: DIVMTQSPSSLAVSVGERVTISCKSSQSLLNSSNQKNYLAWYQQKPGQAPKLLIYFASTRESGVPDRFSGSGSGTDFTLTISSLQAEDVAVYYCQQHYDTPYTFGGGTKLEIKRTVAAPSVFIFPPSDEQLKSGTASVVCLLNNFYPREAKVQWKVDNALQSGNSQESVTEQDSKDSTYSLSSTLTLSKADYEKHKVYACEVTHQGLSSPVTKSFNRGEC
notes: IgG-scFv (Morrison format)
B2: LA5EV2(hG1TM) (bispecific antibody, human IgG1, kappa)
heavy: QVQLQQWGAGLLKPSETLSLTCAVYGGSISDYYWNWIRQPPGKGLEWIGEINYRGTTNSNPSLKSRVTLSLDTSKNQFSLKLRSVTAADTAVYYCAFGYSDYEYDWFDPWGQGTLVTVSSASTKGPSVFPLAPSSKSTSGGTAALGCLVKDYFPEPVTVSWNSGALTSGVHTFPAVLQSSGLYSLSSVVTVPSSSLGTQTYICNVNHKPSNTKVDKKV[letters of human IgG1 Fc with L234A L235A G237A (EU numbers) omitted]GGGGSGGGGSGGGGSGGGGSQVQLVQSGAEVVKPGASVKVSCKASGYSFTGYTMNWVRQAPGQCLEWIGLINPYNAGTSYNQKFQGKVTLTVDKSTSTAYMELSSLRSEDTAVYYCARSEYRYGGDYFDYWGQGTTLTVSSGGGGSGGGGSGGGGSGGGGSDIVMTQSPSSLAVSVGERVTISCKSSQSLLNSSNQKNYLAWYQQKPGQAPKLLIYFASTRESGVPDRFSGSGSGTDFTLTISSLQAEDVAVYYCQQHYDTPYTFGCGTKLEIKR
light: EIVLTQSPATLSLSPGERATLSCRASQTISSYLAWYQQKPGQAPRLLIYDASNRATGIPARFSGSGSGTDFTLTISSLEPEDFAVYYCQQRSNWPITFGQGTNLEIKRTVAAPSVFIFPPSDEQLKSGTASVVCLLNNFYPREAKVQWKVDNALQSGNSQESVTEQDSKDSTYSLSSTLTLSKADYEKHKVYACEVTHQGLSSPVTKSFNRGEC
notes: IgG-scFv (Morrison format); also called LASEV2; LASEV2(hG1TM)

Legend:
[1] = molecular target: T1, human LAG3 on cell surface (293T-LAG3 …); experiment: flow cytometry on 293T-LAG3 cells
human LAG3-mG1Fc [2] = molecular target: T2, human LAG3-mG1Fc; experiment: competitive flow cytometry, 3 nM LAG3-mG1Fc on Raji cells (competitor MHC II)
[3] = molecular target: T3, CD73 on U87-MG cell membrane surface; experiment: flow cytometry on U87-MG cells
human LAG3-mG1Fc [4] = molecular target: T2, human LAG3-mG1Fc; experiment: ELISA, huLAG3-mG1Fc coated 2 ug/mL
[5] = molecular target: T3, CD73 on U87-MG cell membrane surface; experiment: cell-based or functional assay
hNT5E(1-552)-His [6] = molecular target: T4, hNT5E(1-552)-His; experiment: ELISA, NT5E-His coated 1 ug/mL
hNT5E(1-552)-His [7] = molecular target: T4, hNT5E(1-552)-His; experiment: BLI (Fortebio), antigen on HIS1K sensor, antibody in solution, 37 C, 1:1 fit
human LAG3-mG1Fc [8] = molecular target: T2, human LAG3-mG1Fc; experiment: BLI (Fortebio), antigen on AMC sensor, antibody in solution, 30 C, 1:1 fit
hNT5E(1-552)-His [9] = molecular target: T4, hNT5E(1-552)-His; experiment: ELISA, NT5E-His coated 1 ug/mL; remark: listed apart in the source
human LAG3-mG1Fc [10] = molecular target: T2, human LAG3-mG1Fc; experiment: ELISA, huLAG3-mG1Fc coated, Ab 0.0011431 nM
hNT5E(1-552)-His [11] = molecular target: T4, hNT5E(1-552)-His; experiment: ELISA, NT5E-His coated, Ab 0.0000423 nM
human LAG3-mG1Fc [12] = molecular target: T2, human LAG3-mG1Fc; experiment: ELISA, huLAG3-mG1Fc coated, Ab 0.0001270 nM
hNT5E(1-552)-His [13] = molecular target: T4, hNT5E(1-552)-His; experiment: ELISA, NT5E-His coated, Ab 0 nM (blank)
human LAG3-mG1Fc [14] = molecular target: T2, human LAG3-mG1Fc; experiment: ELISA, huLAG3-mG1Fc coated 2 ug/mL; remark: listed apart in the source

Binder	EC50 [1]	EC50 (human LAG3-mG1Fc [2])	EC50 [3]	EC50 (nM), inhibition of CD73 enzyme activity on U87-MG cells [5]	Maximum inhibition rate (%) of CD73 enzyme activity on U87-MG cells [5]	Kd (hNT5E(1-552)-His [7])	Maximum signal height of analyte (nm) (hNT5E(1-552)-His [7])	S E (kdis) (hNT5E(1-552)-His [7])	S E (kon) (hNT5E(1-552)-His [7])	koff (hNT5E(1-552)-His [7])	kon (hNT5E(1-552)-His [7])	Kd (human LAG3-mG1Fc [8])	Maximum signal height of analyte (nm) (human LAG3-mG1Fc [8])	S E (kdis) (human LAG3-mG1Fc [8])	S E (kon) (human LAG3-mG1Fc [8])	koff (human LAG3-mG1Fc [8])	kon (human LAG3-mG1Fc [8])	further results
B1	0.759 nM	0.974 nM	5.46 nM	0.816 nM	98.8%	0.34 nM	0.203 nm	4.01e-06 s⁻¹	1710 M⁻¹ s⁻¹	0.000128 s⁻¹	375000 M⁻¹ s⁻¹	1.47 nM	0.806 nm	3.05e-06 s⁻¹	1880 M⁻¹ s⁻¹	0.000505 s⁻¹	344000 M⁻¹ s⁻¹	EC50 (human LAG3-mG1Fc [4]): 0.231 nM; EC50 (hNT5E(1-552)-His [6]): 0.05 nM
B2	0.399 nM	0.999 nM	2.16 nM	0.61 nM	74.7%	1.21 nM	0.228 nm	2.5e-06 s⁻¹	1360 M⁻¹ s⁻¹	0.000599 s⁻¹	495000 M⁻¹ s⁻¹	0.152 nM	0.948 nm	2.8e-06 s⁻¹	2840 M⁻¹ s⁻¹	7.58e-05 s⁻¹	500000 M⁻¹ s⁻¹	EC50 (hNT5E(1-552)-His [9]): 0.029 nM; OD 450 nm (human LAG3-mG1Fc [10]): 0.156 OD; OD 450 nm (hNT5E(1-552)-His [11]): 0.059 OD; OD 450 nm (human LAG3-mG1Fc [12]): 0.103 OD; OD 450 nm (hNT5E(1-552)-His [13]): 0.058 OD; EC50 (human LAG3-mG1Fc [14]): 0.036 nM
